Source: the supplement of paper PMC10126150
Values marked as one replicate rest on one cluster of the flow cell; about a third of the high ones do not repeat.

Tested on: ATP
Assay: switch fluorescence ratio, 500 uM ATP over buffer (Cy3 cluster intensity, sum of 5 cycles each) (fold (ratio)); higher = stronger signal-on switching upon ATP binding; sequences stand for … in TCGTCGGCAGCGTCAGATGTGTATAAGAGACAGTTTTTTTTTTTTTTTTTTTTTTTTT…TC
Conditions: aptamer strand: ATP DNA aptamer (quencher-CACCTGGGGGAGTATTGCGGAGGAAGG + anchor), 100 nM annealed; ATP concentration: 500 uM; one replicate
In short: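 Clusters carrying Cy3-labelled switching strands on a modified Illumina MiSeq flow-cell were annealed to 100 nM quencher-labelled ATP aptamer and imaged in selection buffer. They were imaged again after 15 min with 500 uM ATP at 22 °C, over five buffer/ATP cycles with NaOH stripping and re-annealing in between. For each cluster, the fluorescence ratio is the summed Cy3 intensity of the target cycles divided by that of the buffer cycles, averaged per switch-domain sequence. Clusters outside 100-1000 RFU were left out.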
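Further: ATP exposure 15 min at 22 °C before imaging.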

TGATCCGTTG
switch fluorescence ratio: 1.04

GAGACACCT
switch fluorescence ratio: 1.25

AAGTCGCCGG
switch fluorescence ratio: 1

TTGGTGCCAA
switch fluorescence ratio: 1.02

GGGCACGCAG
switch fluorescence ratio: 1.03

TGCGGGCTCA
switch fluorescence ratio: 1.01

CCTGAGATGC
switch fluorescence ratio: 1.39

GGTCTAGAAG
switch fluorescence ratio: 0.964

TGACGCGCCT
switch fluorescence ratio: 1.15

GTGGGGCTTG
switch fluorescence ratio: 0.995

CAGATCGGCT
switch fluorescence ratio: 1.09

GTTATGTCCT
switch fluorescence ratio: 0.975

GAAGTCGTGG
switch fluorescence ratio: 0.978

ATGTCCTTCA
switch fluorescence ratio: 1.21

CTCCTAGCTG
switch fluorescence ratio: 1.21

GGGAGGTTAA
switch fluorescence ratio: 0.976

ACAGCTGGCC
switch fluorescence ratio: 0.96

CCCATTGTGT
switch fluorescence ratio: 1.11

AGTAGGCGTC
switch fluorescence ratio: 1.06

AGTGGGGAAG
switch fluorescence ratio: 0.929

CAGTAGGAGA
switch fluorescence ratio: 1.03

AAGCCCTGTG
switch fluorescence ratio: 1.11

ATTATCTAT
switch fluorescence ratio: 0.953

GTTTAAACAC
switch fluorescence ratio: 0.98

AATGCATCAC
switch fluorescence ratio: 1.11

TGCCGGAGCG
switch fluorescence ratio: 1.19

CCGTGCGCTA
switch fluorescence ratio: 4.64

AGTTGAGG
switch fluorescence ratio: 0.984

ATGCGTTGCA
switch fluorescence ratio: 0.987

CGTTAGGGCT
switch fluorescence ratio: 0.991

TTTACTCAGG
switch fluorescence ratio: 1.1

GGCAAAAGGG
switch fluorescence ratio: 0.985

CAGTGACTTG
switch fluorescence ratio: 0.975

TCGTTACTTT
switch fluorescence ratio: 1.04

AGAATGTCGG
switch fluorescence ratio: 0.986

CCAGCTATGA
switch fluorescence ratio: 1.21

TGGCACCAGA
switch fluorescence ratio: 1

TCGGAGTCTT
switch fluorescence ratio: 0.982

TATGAAGGAA
switch fluorescence ratio: 1.01

TATGCTGTGG
switch fluorescence ratio: 0.988

GGTCCGGATT
switch fluorescence ratio: 1.02

AATATAGTAA
switch fluorescence ratio: 0.94

TCGGTCAACA
switch fluorescence ratio: 0.969

ATGGAAACGT
switch fluorescence ratio: 1.07

AATGAAGCGG
switch fluorescence ratio: 0.997

TTCTTTCTTG
switch fluorescence ratio: 1.31

GGGCCCTATT
switch fluorescence ratio: 1.03

GATCCTTTAG
switch fluorescence ratio: 1

ACCGGCATTT
switch fluorescence ratio: 1.08

ATTAATATAC
switch fluorescence ratio: 1.06

CGAGACTAGC
switch fluorescence ratio: 1.12

GGTGTGGCCC
switch fluorescence ratio: 0.985

CCAATCCGAC
switch fluorescence ratio: 1.6

GTATTCAAGT
switch fluorescence ratio: 0.961

TTAATTCACG
switch fluorescence ratio: 1.06

GACTAGTGCT
switch fluorescence ratio: 1.01

CATTAGGCGA
switch fluorescence ratio: 1.07

GCTGCGCATG
switch fluorescence ratio: 1.5

CAGAGGTCCG
switch fluorescence ratio: 1.01

TATGAGTGC
switch fluorescence ratio: 1.03

GTGGAATTAT
switch fluorescence ratio: 1

CAAGGAGCTG
switch fluorescence ratio: 0.985

CGCATTTGGG
switch fluorescence ratio: 1.04

GTAGTAGGTT
switch fluorescence ratio: 0.985

GCTTTCTAGT
switch fluorescence ratio: 0.963

TAAGGTAGAG
switch fluorescence ratio: 1.04

TCACTTCGCG
switch fluorescence ratio: 1.1

CCAATGACTT
switch fluorescence ratio: 1.1

TTCACGGGTA
switch fluorescence ratio: 1.03

GCGTCTTAAA
switch fluorescence ratio: 0.958

TTCACGTTAG
switch fluorescence ratio: 1.03

CATGGGAGAA
switch fluorescence ratio: 0.991

AGTTAATCCT
switch fluorescence ratio: 1.07

GGGATAAAC
switch fluorescence ratio: 1.06

TTAACGCACT
switch fluorescence ratio: 1.95

CAGGATTCTT
switch fluorescence ratio: 1.06

CTATTATTGA
switch fluorescence ratio: 0.993

TACTTAGGCT
switch fluorescence ratio: 1.03

CGCCTAAAAA
switch fluorescence ratio: 0.97

GGGCGGGTG
switch fluorescence ratio: 1.07

CACGTGTGAA
switch fluorescence ratio: 1.03

CTAACGTCAT
switch fluorescence ratio: 1.1

GATACTGAAA
switch fluorescence ratio: 1.07

GGAATAATTG
switch fluorescence ratio: 1.03

TCCATGGTTG
switch fluorescence ratio: 1.02

CATGAGGACG
switch fluorescence ratio: 1.04

CCACTTAATC
switch fluorescence ratio: 1.12

GTGAATTTCA
switch fluorescence ratio: 1.01

ATGTGGGCAG
switch fluorescence ratio: 1.01

AAGCTGGGCC
switch fluorescence ratio: 1.02

CCGGGGTAGT
switch fluorescence ratio: 2.23

GCCCTGATGT
switch fluorescence ratio: 1.09

TTCGTAAATA
switch fluorescence ratio: 1.14

TATGTCAGG
switch fluorescence ratio: 0.987

AAGGGGAGG
switch fluorescence ratio: 1.03

GATTCTTGGA
switch fluorescence ratio: 0.955

GGGAATCATA
switch fluorescence ratio: 1.01

CCCAGTTAAC
switch fluorescence ratio: 1.02

CTTGGGCCTT
switch fluorescence ratio: 1

AGTTTCGAA
switch fluorescence ratio: 1.06

AAGCGATGGG
switch fluorescence ratio: 1.06

CAGTCCCGGC
switch fluorescence ratio: 1.03

CCTATATGGA
switch fluorescence ratio: 0.977

TCCTTACAAT
switch fluorescence ratio: 1.62

CTGTGCCCGG
switch fluorescence ratio: 1.04

TATAGTATTC
switch fluorescence ratio: 1

GAATTCTGCA
switch fluorescence ratio: 1.04

TCATGAGGTC
switch fluorescence ratio: 1.04

CCAACGGGT
switch fluorescence ratio: 1.09

TTTAGTATCG
switch fluorescence ratio: 0.978

CCTTGAGTAG
switch fluorescence ratio: 1.05

GGGTTCCAAC
switch fluorescence ratio: 1.02

CGTAGCGTTG
switch fluorescence ratio: 1.04

TCGGATTCGT
switch fluorescence ratio: 1

CGGTTGTAT
switch fluorescence ratio: 1

ATTTCTCCTG
switch fluorescence ratio: 1.02

CACGTGAAAA
switch fluorescence ratio: 1.05

CGCGGCCAGG
switch fluorescence ratio: 1.41

GCTTCTTGGT
switch fluorescence ratio: 0.979

TTGCAGTAGA
switch fluorescence ratio: 0.965

TCTATTCATC
switch fluorescence ratio: 0.999

TTCGGAGACC
switch fluorescence ratio: 1.02

GGTTGGCGAC
switch fluorescence ratio: 1.02

AGTCTGGCTG
switch fluorescence ratio: 0.939

CACTGGTTAT
switch fluorescence ratio: 0.951

CGAATCCGTG
switch fluorescence ratio: 0.99

CGCTCAGCGG
switch fluorescence ratio: 1.02

TGCAGGCGTT
switch fluorescence ratio: 1.02

TTTTGTGATG
switch fluorescence ratio: 1.03

ACAGTTATGT
switch fluorescence ratio: 0.979

GCGAAACCGT
switch fluorescence ratio: 1.11

ACAATAATAC
switch fluorescence ratio: 2.48

GGACGTCGG
switch fluorescence ratio: 0.965

TGATGCAGGT
switch fluorescence ratio: 1.04

CGTGTACGAG
switch fluorescence ratio: 0.988

GAATGAGTAT
switch fluorescence ratio: 0.981

AGATCAGCGG
switch fluorescence ratio: 0.992

AACACTGGGC
switch fluorescence ratio: 0.997

CCGATGGAGC
switch fluorescence ratio: 1.7

GATGATGTGC
switch fluorescence ratio: 0.97

AGACACTCT
switch fluorescence ratio: 1.04

ATGTCGGAAG
switch fluorescence ratio: 0.988

CCGGCGGCTG
switch fluorescence ratio: 1.03

TAGGGACATG
switch fluorescence ratio: 1.1

TCGTGAGGAA
switch fluorescence ratio: 1

GCGCTAACCT
switch fluorescence ratio: 1.53

CCAAGCTATT
switch fluorescence ratio: 2.64

AACGTCCGGT
switch fluorescence ratio: 1.02

CGACAGTGAA
switch fluorescence ratio: 1.06

ACACACGGGG
switch fluorescence ratio: 1.59

CCGGGCTAAT
switch fluorescence ratio: 2.48

CGAAGAGATC
switch fluorescence ratio: 0.952

GTAGTACGCT
switch fluorescence ratio: 1.03

ATATGTGGT
switch fluorescence ratio: 0.962

GGGAGTGACG
switch fluorescence ratio: 1

GCAAAGCTTC
switch fluorescence ratio: 1.12

CGAGCACCAC
switch fluorescence ratio: 2.17
